Measurements taken from the supplement of paper PMC6531468.
This is one part of the list. Values come from read counts of a selection and are noisy. Scores sum up all selected molecules that hold the word; the word was not tested alone.

Assays:
Experiment in all cases: 6-mer SELEX enrichment z-score vs GST control; IMP3 is the RNA-binding protein IGF2BP3; higher = more enriched by binding
IMP3 KH1-4 = settings: construct: KH1-4 (164-579); SELEX round: R4
Description: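 SELEX-seq with GST-tagged IMP3 KH1-4 (Pro164-Lys579) and an N40 RNA pool, round 4. 6-mer z-score of sequence-tag enrichment normalised to the corresponding GST SELEX round; RNA k-mers written as DNA (T for U).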

IMP3 RRM1-2 = settings: construct: RRM1-2 (1-163); SELEX round: R2
Description: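 SELEX-seq with GST-tagged IMP3 RRM1-2 (Met1-Asn163) and an N40 RNA pool, round 2. 6-mer enrichment z-score normalised to GST SELEX. RNA written as DNA (T = U).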

IMP3 KH1-2 = settings: construct: KH1-2 (164-376); SELEX round: R4
Description: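 SELEX-seq with GST-tagged IMP3 KH1-2 (Pro164-Phe376) and an N40 RNA pool, round 4 (stringent 300/600 mM KCl washes). 6-mer z-score of sequence-tag enrichment normalised to the corresponding GST SELEX round; RNA k-mers written as DNA (T for U).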

IMP3 KH3-4 = settings: construct: KH3-4 (377-579); SELEX round: R4
Description: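 SELEX-seq with GST-tagged IMP3 KH3-4 (Pro377-Lys579) and an N40 RNA pool, round 4. 6-mer z-score of sequence-tag enrichment normalised to the corresponding GST SELEX round; RNA k-mers written as DNA (T for U).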

Sequence of IMP3 KH1-4 (chain, as listed by the source): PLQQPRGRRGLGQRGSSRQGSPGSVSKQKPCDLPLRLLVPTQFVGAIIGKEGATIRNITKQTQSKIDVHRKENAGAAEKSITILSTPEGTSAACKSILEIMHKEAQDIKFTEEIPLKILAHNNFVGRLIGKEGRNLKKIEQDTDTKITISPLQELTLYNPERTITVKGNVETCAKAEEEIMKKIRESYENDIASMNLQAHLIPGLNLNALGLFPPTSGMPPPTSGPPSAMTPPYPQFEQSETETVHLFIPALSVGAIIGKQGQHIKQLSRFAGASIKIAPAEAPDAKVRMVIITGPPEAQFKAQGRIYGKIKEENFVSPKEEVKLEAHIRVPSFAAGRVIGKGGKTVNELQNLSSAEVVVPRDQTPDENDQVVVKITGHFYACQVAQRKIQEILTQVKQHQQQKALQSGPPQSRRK
Sequence of IMP3 KH1-2 (chain, as listed by the source): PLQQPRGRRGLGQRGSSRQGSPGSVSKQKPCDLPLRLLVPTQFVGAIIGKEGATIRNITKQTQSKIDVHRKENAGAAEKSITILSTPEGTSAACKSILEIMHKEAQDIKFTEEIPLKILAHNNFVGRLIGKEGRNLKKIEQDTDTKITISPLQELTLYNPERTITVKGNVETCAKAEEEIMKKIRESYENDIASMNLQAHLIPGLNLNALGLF
Sequence of IMP3 KH3-4 (chain, as listed by the source): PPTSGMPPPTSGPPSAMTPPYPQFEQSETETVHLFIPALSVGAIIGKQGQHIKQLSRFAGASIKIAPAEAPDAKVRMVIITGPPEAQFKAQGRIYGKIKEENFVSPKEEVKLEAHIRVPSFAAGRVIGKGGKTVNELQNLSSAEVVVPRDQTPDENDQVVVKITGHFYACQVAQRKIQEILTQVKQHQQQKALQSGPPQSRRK
Sequence of IMP3 RRM1-2 (chain, as listed by the source): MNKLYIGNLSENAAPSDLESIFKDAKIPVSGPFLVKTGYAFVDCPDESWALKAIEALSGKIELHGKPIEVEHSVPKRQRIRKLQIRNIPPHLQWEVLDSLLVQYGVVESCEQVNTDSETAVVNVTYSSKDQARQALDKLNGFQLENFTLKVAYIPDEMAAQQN

Row | Sequence | 6-mer SELEX enrichment z-score (IMP3 KH1-4) | 6-mer SELEX enrichment z-score (IMP3 RRM1-2) | 6-mer SELEX enrichment z-score (IMP3 KH1-2) | 6-mer SELEX enrichment z-score (IMP3 KH3-4)
1 | ACGAAT | 0.453 | -1.03 | 0.135 | 0.711
2 | AAGAGT | -0.312 | -0.739 | -0.455 | -0.017
3 | ACTGTT | 0.356 | 0.008 | 0.359 | 0.198
4 | GACCAC | -0.621 | 1.35 | -0.62 | -1.15
5 | CACAAA | 0.65 | 1.74 | 1.03 | 0.24
6 | CCCGAG | -2.96 | -1.14 | -2.66 | -2.79
7 | AAGCTA | -0.601 | -0.423 | -0.63 | -0.379
8 | CCCAGG | -1.13 | -0.592 | -1.07 | -1.41
9 | GGGACA | 0.663 | -0.103 | 0.739 | 0.554
10 | CGCGAC | -0.759 | -0.413 | -0.637 | -0.989
11 | TGCGGG | 0.125 | -0.016 | 0.301 | 0.345
12 | CTGCGA | -0.872 | -0.464 | -0.83 | -0.849
13 | GGCAGA | 0.602 | 0.12 | 0.46 | 0.69
14 | GCTATC | -0.184 | 0.353 | -0.133 | -0.146
15 | GTTATA | 0.387 | -0.016 | 0.331 | 0.577
16 | TCACAT | 1.73 | 2.3 | 1.84 | 1.22
17 | TTGGAC | -0.36 | 0.036 | -0.337 | -0.382
18 | GCGCTT | -0.31 | 0.413 | -0.217 | -0.158
19 | GGGTTG | 0.139 | 0.366 | 0.308 | 0.391
20 | GAGCCA | -1.19 | -0.477 | -1.09 | -1.16
21 | TGCCTT | -0.262 | 0.122 | -0.195 | -0.199
22 | CATTCG | 0.449 | 0.666 | 0.236 | 0.163

Row | Sequence | 6-mer SELEX enrichment z-score (IMP3 KH1-4) | 6-mer SELEX enrichment z-score (IMP3 RRM1-2) | 6-mer SELEX enrichment z-score (IMP3 KH1-2) | 6-mer SELEX enrichment z-score (IMP3 KH3-4)
23 | CATCCC | -0.095 | 0.009 | -0.183 | -1.19
24 | GCACAC | 2.47 | 2 | 1.98 | 1.15
25 | ACGGCC | 1.56 | -0.252 | 1.07 | 1.12
26 | CAGACC | -1.01 | -0.265 | -0.769 | -1.57
27 | GCTGGC | 0.453 | 0.179 | 0.465 | 0.327
28 | CTAACC | -1.1 | -0.547 | -1.05 | -1.43
29 | CTCCCC | 0.038 | -0.551 | 0.32 | -1.01
30 | TCGACC | -1.08 | -0.097 | -1.12 | -1.35
31 | CATTGA | 0.214 | 0.251 | 0.08 | 0.216
32 | ATCTAA | 0.254 | -0.262 | -0.005 | 0.184
33 | CTCACA | 0.377 | 1.78 | 0.575 | -0.305
34 | GGTGTC | -0.457 | 0.524 | -0.313 | -0.248
35 | TTGGGC | -0.799 | 0.417 | -0.593 | -0.464
36 | GCTAAG | -0.16 | -0.137 | -0.182 | 0.058
37 | GGTCCT | -0.252 | 0.193 | -0.191 | -0.206
38 | CTGGGC | -0.647 | 0.234 | -0.473 | -0.481
39 | GCGTGT | -1.07 | 0.18 | -0.955 | -0.789
40 | GCGCAA | -0.372 | -0.071 | -0.403 | -0.372
41 | AAGACG | -0.849 | -1.28 | -0.889 | -0.598
42 | GTTAGG | 0.414 | 0.353 | 0.358 | 0.491
43 | AGAGAA | 0.991 | -1.24 | 0.76 | 1.52
44 | ACAATG | 1.15 | 0.11 | 0.757 | 1.24

Row | Sequence | 6-mer SELEX enrichment z-score (IMP3 KH1-4) | 6-mer SELEX enrichment z-score (IMP3 RRM1-2) | 6-mer SELEX enrichment z-score (IMP3 KH1-2) | 6-mer SELEX enrichment z-score (IMP3 KH3-4)
45 | GCTTCA | 0.155 | 0.596 | 0.244 | 0.048
46 | TCCTCA | 0.479 | 0.574 | 0.399 | -0.129
47 | GTATAA | 0.408 | -0.346 | 0.341 | 0.91
48 | GCTGTC | 0.15 | 0.274 | 0.112 | -0.005
49 | TATTGA | 0.63 | -0.202 | 0.382 | 1
50 | TTGACC | -0.806 | -0.61 | -0.897 | -1.04
51 | GCTTGG | -0.332 | 0.366 | -0.205 | -0.159
52 | AGGCAT | 1.19 | 0.692 | 0.609 | 0.84
53 | TTGCTA | 0.276 | 0.208 | 0.187 | 0.358
54 | GACGCA | -0.336 | -0.051 | -0.25 | -0.427
55 | GTACTT | -0.531 | 0.173 | -0.432 | -0.344
56 | GGGTCT | -0.127 | 0.441 | 0.074 | 0.179
57 | TCCACA | 0.597 | 1.17 | 0.619 | -0.304
58 | GACATC | -0.13 | 0.489 | -0.323 | -0.603
59 | AGGGTC | 0.188 | 0.205 | 0.277 | 0.319
60 | AGTGTG | -0.31 | -0.055 | -0.464 | -0.285
61 | TTCATC | 1.13 | 1.24 | 1.2 | 0.646
62 | TCTCAG | -0.377 | 0.527 | -0.249 | -0.272
63 | GAGTCC | -0.141 | -0.417 | -0.156 | -0.375
64 | AAGCCT | -0.934 | -0.774 | -0.908 | -0.937
65 | TACACT | 1.29 | 0.703 | 1.47 | 0.856
66 | TTACTC | -0.294 | 0.288 | -0.198 | -0.335
